{"source": "the supplement of paper PMC8728848", "binders": {"B1": {"name": "rAAL-2 (Agrocybe aegerita) (protein)", "chain": "MTSNVITQDLPIPVASRGFADIVGFGLDGVVIGRNAVNLQPFLAVKNFAQNAGGWLTTKHVRLIADTTGTGKGDIVGFGNAGVYVSVNNGKNTFADPPKMVIANFGYDAGGWRVEKHLRYLADIRKIGRADIIGFGEKGVLVSRNNGGLNFGPATLVLKDFGYDAGGWRLDRHLRFLADVTGNGHLDIVGFGDKHVFISRNNGDGTFAPAKSVIDNFCIDAGGWKIGDHPRFVADLTGDGTADIIGCGKAGCWVALNNGGGVFGQVKLVINDFGTDKGWQAAKHPRFIADLTGNGRGDVVGFGNAGVYVALNNGDGTFQSAKLVLKDFGVQQGWTVSKHRRFVVDLTGDGCADIIGFGEKETLVSYNDGKGNFGPVKALTNDFSFSGGKWAPETTVCWMANLDSSRH"}}, "test_in_all_cases": "glycan array binding signal (z-score within array); higher = stronger binding", "settings_in_all_cases": "glycan notation: IUPAC condensed, linker removed", "key": {"[1]": {"biological_target": "Neu5Ac(a2-6)Gal(b1-4)GlcNAc(b1-2)Man(a1-3)[GlcNAc(b1-2)Man(b1-4)GlcNAc(b1-2)Man(a1-6)]Man(b1-4)GlcNAc(b1-4)GlcNAc", "summary_of_the_method": "(§1)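 Glycan array binding is given as a within-array Z-score, which can be read as non-binding when negative. The arrays, 3228 of them, came from the Consortium for Functional Glycomics database and were retained only where the protein sequence was available. Z-scores were averaged across arrays of the same protein sequence at different concentrations or buffers and across linkers.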"}, "[2]": {"biological_target": "Neu5Ac(a2-6)Gal(b1-4)GlcNAc(b1-2)Man(a1-3)[GlcNAc(b1-4)][Neu5Ac(a2-6)Gal(b1-4)GlcNAc(b1-2)Man(a1-6)]Man(b1-4)GlcNAc(b1-4)GlcNAc", "summary_of_the_method": "as §1"}, "[3]": {"biological_target": "Neu5Ac(a2-6)Gal(b1-4)GlcNAc(b1-2)Man(a1-3)[Man(a1-6)]Man(b1-4)GlcNAc(b1-4)GlcNAc", "summary_of_the_method": "as §1"}, "[4]": {"biological_target": "Neu5Ac(a2-6)Gal(b1-4)GlcNAc(b1-2)Man(a1-3)[Neu5Ac(a2-3)Gal(b1-4)GlcNAc(b1-2)Man(a1-6)]Man(b1-4)GlcNAc(b1-4)GlcNAc", "summary_of_the_method": "as §1"}, "[5]": {"biological_target": "Neu5Ac(a2-6)Gal(b1-4)GlcNAc(b1-2)Man(a1-3)[Neu5Ac(a2-6)Gal(b1-4)GlcNAc(b1-2)Man(a1-6)]Man(b1-4)GlcNAc(b1-4)GlcNAc", "summary_of_the_method": "as §1"}, "[6]": {"biological_target": "Neu5Ac(a2-6)Gal(b1-4)GlcNAc(b1-2)Man(a1-3)[Neu5Ac(a2-6)Gal(b1-4)GlcNAc(b1-2)Man(a1-6)]Man(b1-4)GlcNAc(b1-4)[Fuc(a1-6)]GlcNAc", "summary_of_the_method": "as §1"}, "[7]": {"biological_target": "Neu5Ac(a2-6)Gal(b1-4)GlcNAc(b1-2)Man(a1-6)Man(b1-4)GlcNAc(b1-4)GlcNAc", "summary_of_the_method": "as §1"}, "[8]": {"biological_target": "Neu5Ac(a2-6)Gal(b1-4)GlcNAc(b1-2)Man(a1-6)[Gal(b1-4)GlcNAc(b1-2)Man(a1-3)]Man(b1-4)GlcNAc(b1-4)GlcNAc", "summary_of_the_method": "as §1"}, "[9]": {"biological_target": "Neu5Ac(a2-6)Gal(b1-4)GlcNAc(b1-2)Man(a1-6)[GlcNAc(b1-2)Man(a1-3)]Man(b1-4)GlcNAc(b1-4)GlcNAc", "summary_of_the_method": "as §1"}, "[10]": {"biological_target": "Neu5Ac(a2-6)Gal(b1-4)GlcNAc(b1-2)Man(a1-6)[Man(a1-3)]Man(b1-4)GlcNAc(b1-4)GlcNAc", "summary_of_the_method": "as §1"}, "[11]": {"biological_target": "Neu5Ac(a2-6)Gal(b1-4)GlcNAc(b1-2)[Neu5Ac(a2-6)Gal(b1-4)GlcNAc(b1-4)]Man(a1-3)[GlcNAc(b1-4)][Neu5Ac(a2-6)Gal(b1-4)GlcNAc(b1-2)[Neu5Ac(a2-6)Gal(b1-4)GlcNAc(b1-6)]Man(a1-6)]Man(b1-4)GlcNAc(b1-4)GlcNAc", "summary_of_the_method": "as §1"}, "[12]": {"biological_target": "Neu5Ac(a2-6)Gal(b1-4)GlcNAc(b1-2)[Neu5Ac(a2-6)Gal(b1-4)GlcNAc(b1-4)]Man(a1-3)[GlcNAc(b1-4)][Neu5Ac(a2-6)Gal(b1-4)GlcNAc(b1-4)Man(a1-6)]Man(b1-4)GlcNAc(b1-4)GlcNAc", "summary_of_the_method": "as §1"}, "[13]": {"biological_target": "Neu5Ac(a2-6)Gal(b1-4)GlcNAc(b1-2)[Neu5Ac(a2-6)Gal(b1-4)GlcNAc(b1-6)]Man(a1-6)[Neu5Ac(a2-6)Gal(b1-4)GlcNAc(b1-2)Man(a1-3)][GlcNAc(b1-4)]Man(b1-4)GlcNAc(b1-4)GlcNAc", "summary_of_the_method": "as §1"}, "[14]": {"biological_target": "Neu5Ac(a2-6)Gal(b1-4)GlcNAc(b1-3)Gal(b1-3)GlcNAc", "summary_of_the_method": "as §1"}, "[15]": {"biological_target": "Neu5Ac(a2-6)Gal(b1-4)GlcNAc(b1-3)Gal(b1-4)GlcNAc", "summary_of_the_method": "as §1"}, "[16]": {"biological_target": "Neu5Ac(a2-6)Gal(b1-4)GlcNAc(b1-3)Gal(b1-4)GlcNAc(b1-2)Man(a1-3)[Neu5Ac(a2-6)Gal(b1-4)GlcNAc(b1-3)Gal(b1-4)GlcNAc(b1-2)Man(a1-6)]GalNAc", "summary_of_the_method": "as §1"}, "[17]": {"biological_target": "Neu5Ac(a2-6)Gal(b1-4)GlcNAc(b1-3)Gal(b1-4)GlcNAc(b1-3)Gal(b1-4)GlcNAc", "summary_of_the_method": "as §1"}, "[18]": {"biological_target": "Neu5Ac(a2-6)Gal(b1-4)GlcNAc(b1-3)Gal(b1-4)GlcNAc(b1-3)Gal(b1-4)GlcNAc(b1-2)Man(a1-3)[Neu5Ac(a2-6)Gal(b1-4)GlcNAc(b1-3)Gal(b1-4)GlcNAc(b1-3)Gal(b1-4)GlcNAc(b1-2)Man(a1-6)]GalNAc", "summary_of_the_method": "as §1"}, "[19]": {"biological_target": "Neu5Ac(a2-6)Gal(b1-4)GlcNAc(b1-3)Gal(b1-4)GlcNAc(b1-3)GalNAc", "summary_of_the_method": "as §1"}, "[20]": {"biological_target": "Neu5Ac(a2-6)Gal(b1-4)GlcNAc(b1-3)Gal(b1-4)GlcNAc(b1-3)[Neu5Ac(a2-6)Gal(b1-4)GlcNAc(b1-3)Gal(b1-4)GlcNAc(b1-6)]GalNAc", "summary_of_the_method": "as §1"}, "[21]": {"biological_target": "Neu5Ac(a2-6)Gal(b1-4)GlcNAc(b1-3)Gal(b1-4)GlcNAc(b1-6)[Gal(b1-3)]GalNAc", "summary_of_the_method": "as §1"}, "[22]": {"biological_target": "Neu5Ac(a2-6)Gal(b1-4)GlcNAc(b1-3)Gal(b1-4)[Fuc(a1-3)]GlcNAc(b1-3)Gal(b1-4)[Fuc(a1-3)]GlcNAc", "summary_of_the_method": "as §1"}, "[23]": {"biological_target": "Neu5Ac(a2-6)Gal(b1-4)GlcNAc(b1-3)GalNAc", "summary_of_the_method": "as §1"}, "[24]": {"biological_target": "Neu5Ac(a2-6)Gal(b1-4)GlcNAc(b1-3)[Neu5Ac(a2-6)Gal(b1-4)GlcNAc(b1-6)]GalNAc", "summary_of_the_method": "as §1"}, "[25]": {"biological_target": "Neu5Ac(a2-6)Gal(b1-4)GlcNAc(b1-6)GalNAc", "summary_of_the_method": "as §1"}, "[26]": {"biological_target": "Neu5Ac(a2-6)Gal(b1-4)GlcNAc(b1-6)[Gal(b1-3)GlcNAc(b1-3)]Gal(b1-4)Glc", "summary_of_the_method": "as §1"}, "[27]": {"biological_target": "Neu5Ac(a2-6)Gal(b1-4)GlcNAc(b1-6)[Gal(b1-3)]GalNAc", "summary_of_the_method": "as §1"}, "[28]": {"biological_target": "Neu5Ac(a2-6)Gal(b1-4)GlcNAc6S", "summary_of_the_method": "as §1"}, "Neu5Ac(a2-6)GalNAc": {"biological_target": "Neu5Ac(a2-6)GalNAc", "summary_of_the_method": "as §1"}, "[29]": {"biological_target": "Neu5Ac(a2-6)GalNAc(b1-4)GlcNAc", "summary_of_the_method": "as §1"}, "[30]": {"biological_target": "Neu5Ac(a2-6)GalNAc(b1-4)GlcNAc6S", "summary_of_the_method": "as §1"}, "[31]": {"biological_target": "Neu5Ac(a2-6)GlcNAc(b1-4)GlcNAc", "summary_of_the_method": "as §1"}, "[32]": {"biological_target": "Neu5Ac(a2-6)GlcNAc(b1-4)GlcNAc(b1-4)GlcNAc", "summary_of_the_method": "as §1"}, "Neu5Ac(a2-8)Neu5Ac": {"biological_target": "Neu5Ac(a2-8)Neu5Ac", "summary_of_the_method": "as §1"}, "[33]": {"biological_target": "Neu5Ac(a2-8)Neu5Ac(a2-3)Gal(b1-3)GalNAc(b1-4)[Neu5Ac(a2-3)]Gal(b1-4)Glc", "summary_of_the_method": "as §1"}, "[34]": {"biological_target": "Neu5Ac(a2-8)Neu5Ac(a2-3)Gal(b1-3)GalNAc(b1-4)[Neu5Ac(a2-8)Neu5Ac(a2-3)]Gal(b1-4)Glc", "summary_of_the_method": "as §1"}, "[35]": {"biological_target": "Neu5Ac(a2-8)Neu5Ac(a2-3)Gal(b1-4)Glc", "summary_of_the_method": "as §1"}, "[36]": {"biological_target": "Neu5Ac(a2-8)Neu5Ac(a2-3)Gal(b1-4)GlcNAc", "summary_of_the_method": "as §1"}}, "note": "The other results are listed elsewhere or left out.", "data": [{"binder": "B1", "values": [{"measurement": "glycan array binding signal (z-score)", "setting": "[1]", "value": -0.22}, {"measurement": "glycan array binding signal (z-score)", "setting": "[2]", "value": -0.341}, {"measurement": "glycan array binding signal (z-score)", "setting": "[3]", "value": -0.223}, {"measurement": "glycan array binding signal (z-score)", "setting": "[4]", "value": -0.237}, {"measurement": "glycan array binding signal (z-score)", "setting": "[5]", "value": -0.203}, {"measurement": "glycan array binding signal (z-score)", "setting": "[6]", "value": -0.099}, {"measurement": "glycan array binding signal (z-score)", "setting": "[7]", "value": -0.258}, {"measurement": "glycan array binding signal (z-score)", "setting": "[8]", "value": 0.004}, {"measurement": "glycan array binding signal (z-score)", "setting": "[9]", "value": -0.249}, {"measurement": "glycan array binding signal (z-score)", "setting": "[10]", "value": -0.238}, {"measurement": "glycan array binding signal (z-score)", "setting": "[11]", "value": -0.391}, {"measurement": "glycan array binding signal (z-score)", "setting": "[12]", "value": -0.237}, {"measurement": "glycan array binding signal (z-score)", "setting": "[13]", "value": -0.19}, {"measurement": "glycan array binding signal (z-score)", "setting": "[14]", "value": -0.329}, {"measurement": "glycan array binding signal (z-score)", "setting": "[15]", "value": -0.212}, {"measurement": "glycan array binding signal (z-score)", "setting": "[16]", "value": 0.111}, {"measurement": "glycan array binding signal (z-score)", "setting": "[17]", "value": -0.301}, {"measurement": "glycan array binding signal (z-score)", "setting": "[18]", "value": 0.107}, {"measurement": "glycan array binding signal (z-score)", "setting": "[19]", "value": -0.341}, {"measurement": "glycan array binding signal (z-score)", "setting": "[20]", "value": 0.021}, {"measurement": "glycan array binding signal (z-score)", "setting": "[21]", "value": 0.107}, {"measurement": "glycan array binding signal (z-score)", "setting": "[22]", "value": -0.173}, {"measurement": "glycan array binding signal (z-score)", "setting": "[23]", "value": -0.11}, {"measurement": "glycan array binding signal (z-score)", "setting": "[24]", "value": -0.268}, {"measurement": "glycan array binding signal (z-score)", "setting": "[25]", "value": -0.075}, {"measurement": "glycan array binding signal (z-score)", "setting": "[26]", "value": -0.585}, {"measurement": "glycan array binding signal (z-score)", "setting": "[27]", "value": -0.383}, {"measurement": "glycan array binding signal (z-score)", "setting": "[28]", "value": -0.377}, {"measurement": "glycan array binding signal (z-score)", "setting": "Neu5Ac(a2-6)GalNAc", "value": -0.364}, {"measurement": "glycan array binding signal (z-score)", "setting": "[29]", "value": -0.288}, {"measurement": "glycan array binding signal (z-score)", "setting": "[30]", "value": -0.276}, {"measurement": "glycan array binding signal (z-score)", "setting": "[31]", "value": 0.557}, {"measurement": "glycan array binding signal (z-score)", "setting": "[32]", "value": 0.582}, {"measurement": "glycan array binding signal (z-score)", "setting": "Neu5Ac(a2-8)Neu5Ac", "value": -0.295}, {"measurement": "glycan array binding signal (z-score)", "setting": "[33]", "value": -0.087}, {"measurement": "glycan array binding signal (z-score)", "setting": "[34]", "value": -0.072}, {"measurement": "glycan array binding signal (z-score)", "setting": "[35]", "value": -0.188}, {"measurement": "glycan array binding signal (z-score)", "setting": "[36]", "value": -0.544}]}]}
